Screen size: about 420,000 compounds; about 64,000 (15%) were called active. Inconclusive results, whose numbers are uncertain, are shown with a selection of clear calls. The call rests on the fitted dose curve; in most records, active means well fitted inhibition curve with a large enough effect; inconclusive means small, poorly fitted or top-dose-only effect; inactive means flat fitted curve, though single readings scatter. No potency is given beside an inconclusive call; the fits are too rough.
test: qHTS for Inhibitors of human tyrosyl-DNA phosphodiesterase 1 (TDP1): qHTS in cells in absence of CPT; settings: DT40 Tdp1-/- hTDP1 cells, no CPT, ATP luminescence, 48 h; activity change, negative = growth inhibition: at 46.2 µM (top of the series) unless noted; further: nearly all actives have a fitted effect of over 55% in size
Procedure, shortened: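 A cellular qHTS used chicken DT40 cells lacking endogenous Tdp1 but carrying stably transfected human TDP1. Compounds were applied without camptothecin, and cell growth kinetics were judged by ATP-dependent luminescence after ≥48 hr.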
On the % scale 0 is the no-effect control and ±100 the full control effect; potency means the concentration at half of the fitted maximal effect; tags describe the fitted curve by direction and shape.

| SMILES | Potency | activity change, negative = growth inhibition |
| --- | --- | --- |
| Cc1ccc(NC(=O)CN2CCc3cc4c(cc3C2C)OCCCO4)cc1 (stereo not drawn) | inconclusive [inhibitor, single point] | – |
| COC(=O)c1ccccc1NC(=O)Cn1cnc2sc(C)c(S(=O)(=O)N3CCC(C)CC3)c2c1=O | inconclusive [inhibitor, single point] | – |
| COc1ccc(C2/C=C\CN(C(=O)c3ccc(C)cc3)CC(=O)N2Cc2ccc(F)cc2)cc1 (stereo not drawn) | inconclusive [inhibitor, single point] | – |
| CN(C)S(=O)(=O)c1ccc(C(=O)NCCC(=O)N2CCCC2)cc1 | – | inactive: -2.08% |
| CC(=O)C1C(=O)c2c(cccc2[N+](=O)[O-])C1=Nc1cccc(Cl)c1 (stereo not drawn) | inconclusive [inhibitor, single point] | – |
| O=C(C1=C[C@@H](c2ccc(C(F)(F)F)cc2)C[C@@H](OCc2ccc(CO)cc2)O1)N1CCN(Cc2ccc3c(c2)OCO3)CC1 | active: 20.6 µM | – |
| Cc1ccc(C2c3[nH]c4ccccc4c3C[C@H]3C(=O)N(c4ccccc4C(=O)N4CCC[C@H]4C(=O)O)C(=O)N23)cc1 (stereo partly drawn) | – | inactive: 0.985% |
| Cn1c2ccccc2n2c(=O)cc(-c3ccccc3)c(C#N)c12 | – | inactive: -13.8% |
| Cc1cc(-c2c(C)[nH]n(-c3ccccc3)c2=O)n[nH]1 | active: 4.11 µM | – |
| N/C(=N\NS(=O)(=O)c1ccc(Cl)cc1)c1ccccn1 | – | inactive: -6.53% |
| C/C(=N/NC(=O)c1ccc(C)s1)c1cccc(NC(=O)c2ccoc2C)c1 | inconclusive [inhibitor, single point] | – |
| O=C(Nc1ccc(Cl)cn1)c1ccccc1[N+](=O)[O-] | inconclusive [inhibitor, single point] | – |
| COc1ccccc1C1C(C(N)=O)=C(C)Nc2nc(-c3ccc(Cl)cc3)nn21 (stereo not drawn) | – | inactive: 10.1% |
| COc1cccc(Nc2nc3cc(C)ccc3nc2NS(=O)(=O)c2ccc(Cl)cc2)c1 | active: 4.11 µM | – |
| Cn1c(C(=O)NCCN2CCCCCC2)cc2c(=O)n(C)c3ccccc3c21 | inconclusive [inhibitor, single point] | – |
| O=C(Nc1c(F)cc(F)cc1Br)c1cc(-c2ccccc2)on1 | inconclusive [inhibitor, single point] | – |
| O=C(COc1ccccc1Cl)Nc1ccccc1C(=O)N1CCCCC1 | active: 16.4 µM | – |
| Clc1ccc(-n2cccc2CN2CCc3nnc(Cc4ccccc4)n3CC2)nc1 | – | inactive: -14.4% |
| COc1ccc(NC(=O)c2cc3cc(C)ccc3n2C)c(OC)c1 | inconclusive [inhibitor, partial curve] | – |
| Fc1ccc(NC(=S)N2CCc3ccccc32)cc1 | – | inactive: -11.5% |
| CC1(C(=O)Nc2ccc(Cl)c(Cl)c2)CCN1C(=O)Cc1ccc(-c2ccccc2)cc1 (stereo not drawn) | active: 18.4 µM | – |
| CC[C@]1(c2ccccc2C)ON(c2ccccc2C(F)(F)F)C1=O | – | inactive: -13.8% |
| O=C(CSc1ncc(-c2ccc(F)cc2)[nH]1)NCc1ccco1 | – | inconclusive: -32.3% [inhibitor] |
| CC(=O)Oc1ccccc1Cn1c(C)c(C(=O)N(C)Cc2ccc(F)cc2)sc1=O | inconclusive [inhibitor, single point] | – |

| SMILES | Potency | activity change, negative = growth inhibition |
| --- | --- | --- |
| O=C(Nc1ccc(Oc2c(F)c(F)c(F)c(F)c2F)cc1)OC1CCN2Cc3ccccc3N=C12 (stereo not drawn) | active: 2.31 µM | – |
| COc1ccc(C2(C(=O)NCCCN(C)C)CCOCC2)cc1 | – | inactive: 0.497% |
| Cc1nc2ccccn2c(=O)c1NC(=O)c1cccc(F)c1 | – | inactive: -11.8% |
| COc1ccc(-c2cnc3c(NC(C)=O)cc(-c4ccc(S(C)(=O)=O)cc4)cn23)cc1OC | active: 18.4 µM | – |
| Cc1nn(CCc2nn[nH]n2)c2nc(-c3ccc(Br)cc3)cc(C(F)(F)F)c12 | inconclusive [inhibitor, single point] | – |
| CC1CCCC(C)N1/N=C/c1ccc(C(=O)O)cc1 (stereo not drawn) | – | inconclusive: -34.2% [inhibitor] |
| COc1cc(C#N)c(NC(=O)CN2CCN(CCO)CC2)cc1OC | – | inactive: -7.09% |
| O=C(CSc1ccccc1Cl)N1CCC(c2nc3ccccc3s2)CC1 | inconclusive [inhibitor, single point] | – |
| CCNC(=O)C1(C)CCN(C(=O)c2ccc(OC)cc2)C1 (stereo not drawn) | – | inactive: -9.69% |
| CCCC(=O)Nc1ccc2nn(-c3ccc(OC)cc3)nc2c1 | inconclusive [inhibitor, single point] | – |
| Cc1cc(C(=O)CCC(=O)Nc2ccc(S(N)(=O)=O)cc2)c(C)s1 | inconclusive [inhibitor, full curve, poor fit] | – |
| COc1cc2c(cc1OC)/C(=C/C(=O)c1ccc(C)cc1)NCC2 | inconclusive [inhibitor, single point] | – |
| COc1ccc(/C=N/n2cc(-c3ccc(OC)cc3)nc2N)cc1 | inconclusive [inhibitor, single point] | – |
| CCON1C(=O)C(C)(C)N(OCC)C(=O)C1(C)C | active: 11.6 µM | – |
| Cc1cc(C(=O)CSc2nncs2)c(C)n1-c1c(C)n(C)n(-c2ccccc2)c1=O | – | inactive: -2.44% |
| CC(C)(C)SCCSC1=CC(=O)CC(c2ccccc2)C1 (stereo not drawn) | inconclusive [inhibitor, single point] | – |
| Clc1ccc(C[n+]2csc3ccccc32)cc1 | active: 0.517 µM | – |
| CCCCN1C(=O)c2ccc(C(=O)NCc3ccco3)cc2C1=O | – | inactive: 4.49% |
| Cc1nc2ccc(NC(=O)c3ccc(Cl)c([N+](=O)[O-])c3)cc2s1 | inconclusive [inhibitor, partial curve, poor fit] | – |
| O=C(Nc1cnc2ccccc2c1)N1CCOCC1 | inconclusive [inhibitor, single point] | – |
| COc1ccc(OC)c(NC(=O)CSc2nc3scc(C)c3c(=O)[nH]2)c1 | – | inconclusive: -33.7% [inhibitor] |
| O=C(C1CCCC1)N1CCC(CO)(Cc2ccccc2Cl)CC1 | inconclusive [inhibitor, single point] | – |
| COc1cc([N+](=O)[O-])ccc1NC(=S)NNC(=O)CCC(=O)Nc1ccccc1Cl | – | inactive: 14.4% |
| COc1ccc(Cc2nnc3n2N=C(c2cc4ccccc4o2)CS3)cc1OC | inconclusive [inhibitor, single point] | – |

Reference: PubChem BioAssay AID686978 (National Center for Advancing Translational Sciences (NCATS), 2013)
